{"source": "the RNAGym collection of RNA variant scans (doi:10.1093/nar/gkz1192)", "parents": {"B1": {"name": "CPEB3 Ribozyme (parent)", "chain": "UAACAGGGGGCCACAGCAGAAGCGUUCACGUCGCAGCCCCUGUCAGAUUCUGGUGAAUCUGCGAAUUCUGCUGUAUAUCUC"}}, "note": "The source gives no read counts; variants with many changes may rest on few reads."}
{"variants_of": "B1", "assay": "self-cleavage, relative activity (ratio to wild type); higher = more cleavage; in vitro, sequencing", "summary_of_the_method": "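After error-prone PCR and barcoding, CPEB3 ribozyme mutant libraries were transcribed with T7 RNA polymerase at 37°C for 5 hours, then given 15 min with DNase I before an EDTA stop, and they cleaved during both steps. Reverse transcription with template switching preceded Illumina sequencing. Relative activity divides a variant's cleaved/total read fraction by the unmutated ribozyme's. At least 5 reads were required per variant, and three batches were averaged.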"}
{"variant": "UAACAGGGGGCCACAGCGGAAGCGUUCACGUCGCAGCCCCUGUCAGAUUCCGGUGAAUCUGCGAACUCCGCUGUAUAUCUC", "self-cleavage": 0.28}
{"variant": "UAACAGGGGGCCACAGCGGAAGCGUUCACGUCGCAGCCCCUGUCAGAUUCCGGUGAAUCUGCGAAUUCUGCUGCAUAUCUC", "self-cleavage": 0.78}
{"variant": "UAACAGGGGGCCACAGCGGAAGCGUUCACGUCGCAGCCCCUGUCAGAUUCUGGAGACUCUGCGAAUUCUGCUGUACAUCUC", "self-cleavage": 0.21}
{"variant": "UAACAGGGGGCCACAGCGGAAGCGUUCACGUCGCAGCCCCUGUCAGAUUCUGGAGAAUCUGCGAAUUCUGCAGUAUAUCUC", "self-cleavage": 0.39}
{"variant": "UAACAGGGGGCCACAGCGGAAGCGUUCACGUCGCAGCCCCUGUCAGAUUCUGGCGAGUCUGCGAGUUCUGCUGUAUAUCAC", "self-cleavage": 0.06}
{"variant": "UAACAGGGGGCCACAGCGGAAGCGUUCACGUCGCAGCCCCUGUCAGAUUCUGGCGAAUUUGCGAAUCCUGCUGUAUAUCUC", "self-cleavage": 0.07}
{"variant": "UAACAGGGGGCCACAGCGGAAGCGUUCACGUCGCAGCCCCUGUCAGAUUCUGGCGAAUCUGCGAAUUCUGCUAUAUAUCUC", "self-cleavage": 1.09}
{"variant": "UAACAGGGGGCCACAGCGGAAGCGUUCACGUCGCAGCCCCUGUCAGAUUCUGGCGAAUCUGCGAAUCCUGCUGUAUAUCUC", "self-cleavage": 0.16}
{"variant": "UAACAGGGGGCCACAGCGGAAGCGUUCACGUCGCAGCCCCUGUCAGAUUCUGGCGAAUCUGCGAAUUCCGCUGUAUACCUC", "self-cleavage": 1.06}
{"variant": "UAACAGGGGGCCACAGCGGAAGCGUUCACGUCGCAGCCCCUGUCAGAUUCUGGUGAAACUGCGAAUCCUGCUGUAUAUCUC", "self-cleavage": 0.14}
{"variant": "UAACAGGGGGCCACAGCGGAAGCGUUCACGUCGCAGCCCCUGUCAGAUUCUGGUGAAACUGCGAAUUCAGCUGUAUAUCUC", "self-cleavage": 0.17}
{"variant": "UAACAGGGGGCCACAGCGGAAGCGUUCACGUCGCAGCCCCUGUCAGAUUCUGGUGAACUUGCGAAUUCUGCUGUAUACCUC", "self-cleavage": 0.19}
{"variant": "UAACAGGGGGCCACAGCGGAAGCGUUCACGUCGCAGCCCCUGUCAGAUUCUGGUGAACCCGCGAAUACUGCUGUAUAUCUC", "self-cleavage": 0.13}
{"variant": "UAACAGGGGGCCACAGCGGAAGCGUUCACGUCGCAGCCCCUGUCAGAUUCUGGUGAAUCAGCGAAUACUGCUGUAUAUCUC", "self-cleavage": 0.2}
{"variant": "UAACAGGGGGCCACAGCGGAAGCGUUCACGUCGCAGCCCCUGUCAGAUUCUGGUGAAUCCGCGAAUUCUUCUGUAUAUCUC", "self-cleavage": 0.1}
{"variant": "UAACAGGGGGCCACAGCGGAAGCGUUCACGUCGCAGCCCCUGUCAGAUUCUGGUGAAUCUGCGAACUCUGCAGUAUAUAUC", "self-cleavage": 0.27}
{"variant": "UAACAGGGGGCCACAGCGGAAGCGUUCACGUCGCAGCCCCUGUCAGAUUCUGGUGAAUCUGCGAACUCUGCAGUAUAACCC", "self-cleavage": 0.39}
{"variant": "UAACAGGGGGCCACAGCGGAAGCGUUCACGUCGCAGCCCCUGUCAGAUUCUGGUGAAUCUGCGAACUCUGCUGUAUAUCAC", "self-cleavage": 0.28}
{"variant": "UAACAGGGGGCCACAGCGGAAGCGUUCACGUCGCAGCCCCUGUCAGAUUCUGGUGAAUCUGCGAAUCCUGCUGUAUAUUCC", "self-cleavage": 0.14}
{"variant": "UAACAGGGGGCCACAGCGGAAGCGUUCACGUCGCAGCCCCUGUCAGAUUCUGGUGAAUCUGCGAAUCCCGCCGUGUAUCUC", "self-cleavage": 0.1}
{"variant": "UAACAGGGGGCCACAGCGGAAGCGUUCACGUCGCAGCCCCUGUCAGAUUCUGGUGAAUCUGCGAAUCCUGCAGUAUAUCUC", "self-cleavage": 0.15}
{"variant": "UAACAGGGGGCCACAGCGGAAGCGUUCACGUCGCAGCCCCUGUCAGAUUCUGGUGAAUCUGCGAAUUCUGCAGUAUUCCUC", "self-cleavage": 0.23}
{"variant": "UAACAGGGGGCCACAGCGGAAGCGUUCACGUCGCAGCCCCUGUCAGAUUCUGGUGAAUCUGCGAAUUCUGCCGUAUAUUUC", "self-cleavage": 0.81}
{"variant": "UAACAGGGGGCCACAGCGGAAGCGUUCACGUCGCAGCCCCUGUCAGAUUCUGGUGAAUCUGCGAAUUCUGCGGUAUCUCUC", "self-cleavage": 0.32}
{"variant": "UAACAGGGGGCCACAGCUGCAGCGUUCACGUCGCAGCCCCUGUCGGAUUCUGGUGGAUCUGCGAAUUCUGCUGUAUAUCUC", "self-cleavage": 0.15}
{"variant": "UAACAGGGGGCCACAGCUGGAGCGUUCACGUCGCUGCCCCUGUCAGAUUCUGGUGGAUCCGCGAAUUCUGCUGUAUAUCAC", "self-cleavage": 0.07}
{"variant": "UAACAGGGGGCCACAGCUGGAGCGUUCACGUCGCAGCCCCUGUCUGAUUCUGGUGUAUCAGCGAAUUCUGCUGUAUAUCUC", "self-cleavage": 0.35}
{"variant": "UAACAGGGGGCCACAGCUGGAGCGUUCACGUCGCAGCCCCUGUCAGAUUCUGGUGGAUCUGCGAAUUCCGCUGUAUAUCUC", "self-cleavage": 0.15}
{"variant": "UAACAGGGGGCCACAGCUGGAGCGUCCACGUCGCAGCCUCUGUCAGAUUCUGGUGUAUCUGCGAAUACUGCUGUAUAUCUC", "self-cleavage": 0.06}
{"variant": "UAACAGGGGGCCACAGCUGGAGCGUCCACGUCGCAGCCCCUGUCAGAUUCUGGUGAAUCUGCGAAUUCUGCCGUAUAUCUC", "self-cleavage": 0.09}
{"variant": "UAACAGGGGGCCACAGCUGGAGCGUGCACGUCGCAGCCCCUGUCAGAUUCUGGUGAAUCUGCGAAUUCAGCUGUAUAUCUC", "self-cleavage": 0.23}
{"variant": "UAACAGGGGGCCACAGCUGGAGCGUUCACGUCGCAGCCCCCGUCAGAUUCUGGUGAAUCUGCGAAUUCUGCUGUAUAUCUC", "self-cleavage": 0.15}
{"variant": "UAACAGGGGGCCACAGCUGGAGCGUUCACGUCGCAGCCCCCGUCAGAUUCUGGUGAAUCUGCGAAUUCUGCUGUAUAUUUC", "self-cleavage": 0.24}
{"variant": "UAACAGGGGGCCACAGCUGUAGCGUUCUCGUCGCAGCCCCUGUCAGAUUCUGGUGAAUCUGCGAAUGCUGCUGUAUAUCUC", "self-cleavage": 0.08}
